This is one part of the list.
What follows are sequences tested on PF3D7_0420300 AP2 domain 1 (GST-tagged) (assay: gcPBM binding intensity (ln(normalized median fluorescence intensity)); higher = stronger DNA binding).
Outline: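 Alexa488 anti-GST antibody, scanned at 488 nm, detected GST-tagged P. falciparum DNA-binding domains that had been expressed in E. coli and incubated for 1 h on an Agilent 4 × 180k array. The array carried primer-extended double-stranded 36-bp intergenic genomic probes and negative controls. Binding intensity is the highest Masliner-normalised natural-log median intensity across replicate spots of either orientation of each probe.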

| Sequence | gcPBM binding intensity (ln) |
| --- | --- |
| GAAAAAAAAAAAAATACACACAAATTGGTATATAAC [CACACA_site6315] | 9.66 |
| GCTATAATAAAATTTAAACACACGTAATATAATATA [CACACA_site2592] | 9.26 |
| AAAATTTCATAAAGACGTACTATAAAAATAAAATTA [XGTACX_site4182] | 9.17 |
| GTATATTTCTTTAAATGTACACATTTTTTTAAAGAG [XGTACX_site1225] | 8.85 |
| AATTGTATAAATGGAATAATGACTATGATTATACAT [GTGCAC_negctrl_site188] | 9.41 |
| AAAAATTCTTGGCGCACACACTTTAAAAGTTAAAAA [CACACA_site6430] | 9.25 |
| CACTAATAGTGGATTACACACATATAGATGTATATA [CACACA_site7234] | 9.35 |
| TATAAAAAATATCCTTTTTTTATACATCAATATATA [TGCATGCA_negctrl_site291] | 8.92 |
| TATATAAAACCTTATTGTACTATTAGACTATGCTTA [XGTACX_site6026] | 9.06 |
| CAAATATCTATTTAGTGTACTAATATATTCAATAAT [XGTACX_site2345] | 9.11 |
| ACAAAGACAATTTTGTTATATATAAAAAAAAAAAAT [CACACA_negctrl_site253] | 9.17 |
| ATTAATTTTCCATTCACACATATATATATATATATA [CACACA_site6065] | 9.33 |
| TACAAATATATATGCACACACATATCTGTATATGTG [CACACA_site5663] | 9.68 |
| ATAGCATATATTTTTTGTACATATGTTATATATATA [XGTACX_site2184] | 9.29 |
| ATGTAGATATATATCTGTACGTATATGTAAATATTA [XGTACX_site1516] | 9.23 |
| ACACATTATAACAAGGTGCAATTTTTATACACATGT [GTGCAC_site9866] | 9.39 |
| AATTCTTTTTATATATTAAATATTATTAATAAGTCA [CACACA_negctrl_site1488] | 8.93 |
| TCTTAAATATACAGTTGTACTAAACAAAAAAAAAAA [XGTACX_site2639] | 9.09 |
| TATAAAAAATGATAAAGTACTTTATACACACAAATA [XGTACX_site8486] | 9.64 |
| AAAATATACACACATATGTATATAATATTATATGTA [GTGCAC_negctrl_site496] | 9.49 |
| CTAAAACAATAAATCACACATACATAGGATAATATA [CACACA_site4247] | 9.71 |
| ATTTATAATCTGTATAGTACACATATATACATGGTT [XGTACX_site2714] | 9.37 |

| Sequence | gcPBM binding intensity (ln) |
| --- | --- |
| GTATACTTAACATTCACACATATATATATATATAAA [CACACA_site4596] | 9.3 |
| ATATATATATATATATGTACTTATAATTCTTCAATT [XGTACX_site5627] | 9.03 |
| AATTATTTACCTTCTTTGAAAGAACAAATGATACAA [CACACA_negctrl_site1315] | 8.96 |
| ATATATCAACTCATATTATTTTCTTTTATTATTTAT [CACACA_negctrl_site276] | 9.46 |
| AAACATCATAAATATACACACATATATATATATATA [CACACA_site620] | 9.34 |
| TACACAAAATTTAAATGTACATTAAATATATGATGT [XGTACX_site2140] | 9.21 |
| TGATAGCTAGCTATATGTACATATATATATATATAT [XGTACX_site393] | 9.18 |
| CTTTCGGTTGGAGAGGTGCGCTTCTCCTTTATAATA | 9.1 |
| ATTTATCTATAATATACACACATATAACAGACATAT [CACACA_site6469] | 9.65 |
| AAAACGTATCACAAAAGTACAGATAGTTATAATATA [XGTACX_site185] | 9.43 |
| CGAAACCATATGTACACACACATATATAAATATGTA [CACACA_site7082] | 9.76 |
| TTTATATTTCTCTTTAGTACATATTATATTCTTTTA [XGTACX_site1618] | 9.34 |
| AATGAAAATAAATTAACACACAATTTTAATATTGTT [CACACA_site1306] | 9.32 |
| AAATATATATATATAATACACACTAAAGTAACATAA [CACACA_site2870] | 9.68 |
| ATAGAAGGACATATAACACACATATATTATAAGTAT [CACACA_site5461] | 9.68 |
| TGTCGACATGTAGGTAGTACTATTAAAAATAATGAT [XGTACX_site3849] | 9.18 |
| GGATGATTAAGGGGGACACACGTTTATATATTTATA [CACACA_site4342] | 9.82 |
| AATAAATTAATAAGGTGTACATAAATAATTTATATA [XGTACX_site8278] | 9.34 |
| ATATATTATTATATATGTACTTATTTATAAATGATT [XGTACX_site7597] | 9.17 |
| AAATAGGGAATTTATGCACACAGTTAAGGGGGAAAA [CACACA_site2071] | 9.56 |
| TAAATATAAACACAAACACACACATATATATATATA [CACACA_site7978] | 9.77 |
| ATTCAAAAGGTTTAATGTACGTGATGTTTCACAAAT [XGTACX_site784] | 9.09 |

From the supplement of paper PMC11417369
